Data published in publication PMC11306785.
No constants are given. Whether binding was seen depends on the method and setting. For some of these results: Binding seen in cells or lysates may run through a third protein. Some binding calls cover weakened binding; strength is not graded here. For some of these results: Tags and fused reporters may be left off the sequences shown.

Amino acid sequences for entries named in this document (tags omitted). A change or cut given only in a name is not applied to a line headed by its entry. Chains listed by the source or under a name are the forms on record and can include a tag or linker.
UniProt P67775: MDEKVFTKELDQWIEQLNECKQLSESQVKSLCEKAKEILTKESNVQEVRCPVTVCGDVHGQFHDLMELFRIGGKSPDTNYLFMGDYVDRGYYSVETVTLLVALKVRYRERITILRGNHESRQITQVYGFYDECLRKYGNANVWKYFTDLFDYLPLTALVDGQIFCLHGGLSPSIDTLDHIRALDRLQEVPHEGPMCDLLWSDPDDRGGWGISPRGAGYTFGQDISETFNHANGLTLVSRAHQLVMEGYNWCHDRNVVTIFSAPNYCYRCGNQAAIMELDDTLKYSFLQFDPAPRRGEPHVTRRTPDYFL
UniProt P06730: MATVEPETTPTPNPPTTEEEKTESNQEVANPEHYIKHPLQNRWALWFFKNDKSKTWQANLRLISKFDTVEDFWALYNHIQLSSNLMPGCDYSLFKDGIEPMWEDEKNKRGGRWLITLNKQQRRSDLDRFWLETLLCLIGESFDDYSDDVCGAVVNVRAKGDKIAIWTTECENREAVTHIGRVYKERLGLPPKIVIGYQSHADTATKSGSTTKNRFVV
FLAG-eIF4E-VWLmut (P06730, form named): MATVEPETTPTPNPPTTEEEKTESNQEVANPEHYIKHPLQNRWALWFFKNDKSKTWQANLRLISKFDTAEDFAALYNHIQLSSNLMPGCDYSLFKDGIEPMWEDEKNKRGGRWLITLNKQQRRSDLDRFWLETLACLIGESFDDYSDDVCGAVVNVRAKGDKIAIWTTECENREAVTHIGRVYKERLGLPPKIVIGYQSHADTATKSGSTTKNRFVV
UniProt Q13541: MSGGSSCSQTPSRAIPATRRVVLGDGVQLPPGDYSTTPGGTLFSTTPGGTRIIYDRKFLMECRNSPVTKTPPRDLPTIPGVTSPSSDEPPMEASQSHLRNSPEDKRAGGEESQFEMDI
UniProt P35221: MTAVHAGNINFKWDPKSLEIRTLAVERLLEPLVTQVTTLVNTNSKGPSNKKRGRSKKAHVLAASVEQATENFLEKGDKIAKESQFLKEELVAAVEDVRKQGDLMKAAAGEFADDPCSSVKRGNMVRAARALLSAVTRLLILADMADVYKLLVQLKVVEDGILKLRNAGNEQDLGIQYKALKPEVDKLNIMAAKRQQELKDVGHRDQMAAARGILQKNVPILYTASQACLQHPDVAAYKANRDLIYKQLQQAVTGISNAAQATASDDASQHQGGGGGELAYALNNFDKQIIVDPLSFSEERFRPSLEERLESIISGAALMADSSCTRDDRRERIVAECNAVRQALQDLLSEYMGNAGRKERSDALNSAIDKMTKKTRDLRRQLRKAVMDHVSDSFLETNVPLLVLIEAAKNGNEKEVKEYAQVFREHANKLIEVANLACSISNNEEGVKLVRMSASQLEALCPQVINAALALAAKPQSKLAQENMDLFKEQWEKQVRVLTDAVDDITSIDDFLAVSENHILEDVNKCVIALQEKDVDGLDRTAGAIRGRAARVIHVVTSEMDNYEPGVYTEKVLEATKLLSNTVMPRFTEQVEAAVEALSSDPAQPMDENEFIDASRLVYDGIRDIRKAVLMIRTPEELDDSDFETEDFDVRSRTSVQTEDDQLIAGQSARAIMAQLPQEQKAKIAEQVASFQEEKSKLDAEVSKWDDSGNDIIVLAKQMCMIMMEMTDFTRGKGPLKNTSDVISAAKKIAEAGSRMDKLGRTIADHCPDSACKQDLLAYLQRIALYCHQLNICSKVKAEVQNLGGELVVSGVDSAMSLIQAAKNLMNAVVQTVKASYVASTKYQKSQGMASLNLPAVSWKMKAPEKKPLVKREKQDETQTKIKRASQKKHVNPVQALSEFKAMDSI

Legend:
[1] = biological target: T1, FLAG-tagged PPM1G (human) (UniProt O15355); test: co-IP; anti-FLAG affinity gel (25 μl), 1-2 mg lysate of transiently transfected HEK293H cells, 1 h at 4°C, lysis buffer 50 mM HEPES-KOH pH 7.5, 50 mM KCl, 2 mM MgCl2, 2 mM EGTA, 5% glycerol, 0.5% NP40; partners detected by Western blot; in Figure 3B cells treated with DMSO or PP242 for 2 h
T1 sequence: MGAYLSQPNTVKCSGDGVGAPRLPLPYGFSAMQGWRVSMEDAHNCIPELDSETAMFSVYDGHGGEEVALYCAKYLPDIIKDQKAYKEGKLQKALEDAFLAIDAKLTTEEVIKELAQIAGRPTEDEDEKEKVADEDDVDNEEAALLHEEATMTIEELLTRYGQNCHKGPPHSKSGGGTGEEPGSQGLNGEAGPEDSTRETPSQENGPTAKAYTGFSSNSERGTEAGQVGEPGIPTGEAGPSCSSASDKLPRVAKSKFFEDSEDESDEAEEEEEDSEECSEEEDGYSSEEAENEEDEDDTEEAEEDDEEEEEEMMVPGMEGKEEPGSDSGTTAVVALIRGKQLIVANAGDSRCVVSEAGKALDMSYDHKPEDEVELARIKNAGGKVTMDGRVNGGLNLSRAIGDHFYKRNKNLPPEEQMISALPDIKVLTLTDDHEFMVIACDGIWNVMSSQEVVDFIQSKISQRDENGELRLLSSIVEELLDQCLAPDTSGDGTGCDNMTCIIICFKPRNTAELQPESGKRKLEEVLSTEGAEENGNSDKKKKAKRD

[2] = biological target: FLAG-PP2Acα (UniProt P67775); test: as above
[3] = biological target: T2, FLAG-PPM1G-YLmut (human) (UniProt O15355); test: as above
T2 sequence: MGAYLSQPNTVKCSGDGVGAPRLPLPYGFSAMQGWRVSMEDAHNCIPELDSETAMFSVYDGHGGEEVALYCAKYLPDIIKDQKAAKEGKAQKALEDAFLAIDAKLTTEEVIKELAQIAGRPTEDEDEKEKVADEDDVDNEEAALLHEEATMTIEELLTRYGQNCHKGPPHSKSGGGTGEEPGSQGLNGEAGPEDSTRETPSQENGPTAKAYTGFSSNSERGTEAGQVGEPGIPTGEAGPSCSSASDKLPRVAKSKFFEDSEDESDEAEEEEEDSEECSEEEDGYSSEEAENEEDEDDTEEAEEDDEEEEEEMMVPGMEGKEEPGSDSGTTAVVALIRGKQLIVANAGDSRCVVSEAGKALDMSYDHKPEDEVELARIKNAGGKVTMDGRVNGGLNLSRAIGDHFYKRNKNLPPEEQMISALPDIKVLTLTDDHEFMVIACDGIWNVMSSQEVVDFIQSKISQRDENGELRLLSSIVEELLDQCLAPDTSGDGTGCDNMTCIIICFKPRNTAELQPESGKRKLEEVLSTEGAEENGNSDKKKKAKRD

[4] = biological target: FLAG-tagged eIF4E (UniProt P06730); test: co-IP; FLAG-tagged eIF4E proteins co-expressed with HA-PPM1G in HEK293H; 6 mg input to saturate 15 μl anti-FLAG agarose-affinity gel; Western blot, quantitated
[5] = biological target: FLAG-eIF4E-VWLmut (UniProt P06730); test: as above
[6] = biological target: FLAG-tagged eIF4E (UniProt P06730); test: co-IP; anti-FLAG affinity gel (25 μl), 1-2 mg lysate of transiently transfected HEK293H cells, 1 h at 4°C, lysis buffer 50 mM HEPES-KOH pH 7.5, 50 mM KCl, 2 mM MgCl2, 2 mM EGTA, 5% glycerol, 0.5% NP40; partners detected by Western blot; in Figure 3B cells treated with DMSO or PP242 for 2 h
[7] = biological target: GST-tagged eIF4E (UniProt P06730); test: pull-down; GST pull-down: 1 μg GST-eIF4E on glutathione magnetic agarose beads, 100 ng 6xHIS-tagged protein, equilibration buffer, 30 min at 4°C; Western blot; both purified
[8] = biological target: endogenous eIF4E (human (endogenous in HEK293H)) (UniProt P06730); test: condition: only eIF4E bound to m7GDP (cap analog) agarose; pull-down; m7GDP (cap analog)-agarose beads (15 μl), 0.5 mg lysate of HEK293H cells transfected with FLAG-GFP or FLAG-PPM1G, 30 min at 4°C; Western blot

Molecule: endogenous 4E-BP1 (from UniProt Q13541 1-118) (other; other documents disagree on this pair)
- binding [1]: no binding

Molecule: endogenous eIF4E (from UniProt P06730 1-217)
- binding [1]: binds
- binding [2]: no binding

Molecule: α-catenin (from UniProt P35221 1-906)
- binding [1]: binds
- binding [3]: binds

B1: HA-PPM1G (enzyme, UniProt O15355 1-546)
chain: MGAYLSQPNTVKCSGDGVGAPRLPLPYGFSAMQGWRVSMEDAHNCIPELDSETAMFSVYDGHGGEEVALYCAKYLPDIIKDQKAYKEGKLQKALEDAFLAIDAKLTTEEVIKELAQIAGRPTEDEDEKEKVADEDDVDNEEAALLHEEATMTIEELLTRYGQNCHKGPPHSKSGGGTGEEPGSQGLNGEAGPEDSTRETPSQENGPTAKAYTGFSSNSERGTEAGQVGEPGIPTGEAGPSCSSASDKLPRVAKSKFFEDSEDESDEAEEEEEDSEECSEEEDGYSSEEAENEEDEDDTEEAEEDDEEEEEEMMVPGMEGKEEPGSDSGTTAVVALIRGKQLIVANAGDSRCVVSEAGKALDMSYDHKPEDEVELARIKNAGGKVTMDGRVNGGLNLSRAIGDHFYKRNKNLPPEEQMISALPDIKVLTLTDDHEFMVIACDGIWNVMSSQEVVDFIQSKISQRDENGELRLLSSIVEELLDQCLAPDTSGDGTGCDNMTCIIICFKPRNTAELQPESGKRKLEEVLSTEGAEENGNSDKKKKAKRD
- binding [4]: binds
- binding [5]: no binding

B2: endogenous PPM1G (enzyme, UniProt O15355 1-546)
chain: MGAYLSQPNTVKCSGDGVGAPRLPLPYGFSAMQGWRVSMEDAHNCIPELDSETAMFSVYDGHGGEEVALYCAKYLPDIIKDQKAYKEGKLQKALEDAFLAIDAKLTTEEVIKELAQIAGRPTEDEDEKEKVADEDDVDNEEAALLHEEATMTIEELLTRYGQNCHKGPPHSKSGGGTGEEPGSQGLNGEAGPEDSTRETPSQENGPTAKAYTGFSSNSERGTEAGQVGEPGIPTGEAGPSCSSASDKLPRVAKSKFFEDSEDESDEAEEEEEDSEECSEEEDGYSSEEAENEEDEDDTEEAEEDDEEEEEEMMVPGMEGKEEPGSDSGTTAVVALIRGKQLIVANAGDSRCVVSEAGKALDMSYDHKPEDEVELARIKNAGGKVTMDGRVNGGLNLSRAIGDHFYKRNKNLPPEEQMISALPDIKVLTLTDDHEFMVIACDGIWNVMSSQEVVDFIQSKISQRDENGELRLLSSIVEELLDQCLAPDTSGDGTGCDNMTCIIICFKPRNTAELQPESGKRKLEEVLSTEGAEENGNSDKKKKAKRD
- binding [6]: binds

B3: HIS-tagged PPM1G (enzyme, UniProt O15355 1-546)
chain: MGAYLSQPNTVKCSGDGVGAPRLPLPYGFSAMQGWRVSMEDAHNCIPELDSETAMFSVYDGHGGEEVALYCAKYLPDIIKDQKAYKEGKLQKALEDAFLAIDAKLTTEEVIKELAQIAGRPTEDEDEKEKVADEDDVDNEEAALLHEEATMTIEELLTRYGQNCHKGPPHSKSGGGTGEEPGSQGLNGEAGPEDSTRETPSQENGPTAKAYTGFSSNSERGTEAGQVGEPGIPTGEAGPSCSSASDKLPRVAKSKFFEDSEDESDEAEEEEEDSEECSEEEDGYSSEEAENEEDEDDTEEAEEDDEEEEEEMMVPGMEGKEEPGSDSGTTAVVALIRGKQLIVANAGDSRCVVSEAGKALDMSYDHKPEDEVELARIKNAGGKVTMDGRVNGGLNLSRAIGDHFYKRNKNLPPEEQMISALPDIKVLTLTDDHEFMVIACDGIWNVMSSQEVVDFIQSKISQRDENGELRLLSSIVEELLDQCLAPDTSGDGTGCDNMTCIIICFKPRNTAELQPESGKRKLEEVLSTEGAEENGNSDKKKKAKRD
- binding [7]: binds

B4: FLAG-tagged PPM1G (enzyme, UniProt O15355 1-546)
chain: MGAYLSQPNTVKCSGDGVGAPRLPLPYGFSAMQGWRVSMEDAHNCIPELDSETAMFSVYDGHGGEEVALYCAKYLPDIIKDQKAYKEGKLQKALEDAFLAIDAKLTTEEVIKELAQIAGRPTEDEDEKEKVADEDDVDNEEAALLHEEATMTIEELLTRYGQNCHKGPPHSKSGGGTGEEPGSQGLNGEAGPEDSTRETPSQENGPTAKAYTGFSSNSERGTEAGQVGEPGIPTGEAGPSCSSASDKLPRVAKSKFFEDSEDESDEAEEEEEDSEECSEEEDGYSSEEAENEEDEDDTEEAEEDDEEEEEEMMVPGMEGKEEPGSDSGTTAVVALIRGKQLIVANAGDSRCVVSEAGKALDMSYDHKPEDEVELARIKNAGGKVTMDGRVNGGLNLSRAIGDHFYKRNKNLPPEEQMISALPDIKVLTLTDDHEFMVIACDGIWNVMSSQEVVDFIQSKISQRDENGELRLLSSIVEELLDQCLAPDTSGDGTGCDNMTCIIICFKPRNTAELQPESGKRKLEEVLSTEGAEENGNSDKKKKAKRD
- binding [8]: no binding
